Assay results reported in PubChem BioAssay (NCI).
“And” between values parts separate entries of the source, which are not always exact repeats. Equal values may be shown once.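 Growth conditions: 96-well plates. Treatment: test compound, 48 hours, 5 concentrations. Analysis: linear interpolation between bracketing concentrations; unreached endpoints set to highest concentration. GI50 = concentration required for 50% inhibition of growth. Definition used: TGI = concentration required for complete inhibition of growth.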 Numbered stars: 1 amine (or outer) side, 2 acyl side, 3 side chain; on linkers, the order of the positions; unused ones are H or OH. Bridge positions count the residues as written; N and C are the ends. Square brackets hold non-standard residues; d marks the D form. Peptide text beside a SMILES is read from it. * marks the point of attachment. ξ: configuration not given here. X31 = O=C(C(CCCCNO[*:3])N[*:1])[*:2]; Fmoc = O=C(OCC1c2ccccc2-c2ccccc21)*; ξW = NC(Cc1c[nH]c2ccccc12)C(=O)O; ξP = O=C(O)C1CCCN1

tested on: NCI-H322M lung; test: growth of human tumour cells (NCI), 48 h

Compared with `Cc1cc(I)cc(CNCCCN2CCSCC2)c1O`, `CC1=C(CCCNS(C)(=O)=O)C2=C(C)C3(CC3)[C@@](C)(O)C(=O)C2=C1` is 14-fold lower in GI50: 17.9 µM for the first, 1.29 µM for the second.

`CSc1ccc(C2=NN(C(C)=O)C(c3cc(C)cs3)C2)cc1` (stereo not drawn) and `CC1=C(C(=O)Nc2ccc3[nH]ncc3c2)C(c2ccc3ccccc3c2)CC(=O)N1` (stereo not drawn) cannot be ordered by GI50: 52.8 µM for the first, over 25 µM for the second.

Compared with `CC1OC(O[C@H]2C[C@@H](O)[C@]3(CO)[C@H]4[C@H](O)C[C@]5(C)[C@@H](C6=CC(=O)OC6)CC[C@]5(O)[C@@H]4CC[C@]3(O)C2)C(O)C(O)C1O` (stereo partly drawn), `COc1ccc(/C(=C2\O[C@@H]([C@H]3COC(C)(C)O3)[C@H]3OC(C)(C)O[C@@H]23)c2cc(OC)c(OC)c(OC)c2)cc1O` is 3.7-fold lower in GI50: 24.4 µM for the first, 6.58 µM for the second.

Going from `Cc1ccc2c(c1)C(=O)/C(=C/c1ncc([N+](=O)[O-])n1C)O2` to `COc1cc(OC)cc(-c2ccc(-c3ccc(C(=N)N)o3)o2)c1`, the GI50 falls from 10.2 µM to 2.86 µM (3.6-fold).

`O=C1c2c(c3c4ccccc4n(CCCCCCBr)c3c3[nH]c4ccccc4c23)C(=O)N1O` and `O=C(NCCOCCOCCNc1cccc2c1C(=O)N(C1CCCNC1=O)C2=O)c1cc2c(o1)C(=O)c1ccccc1C2=O` (stereo not drawn) are within 1.5-fold of each other in GI50: 2.5 µM for the first, 1.88 µM for the second.

Compared with `O=C(c1ccco1)c1nc2ccc(C(F)(F)F)cc2[n+]([O-])c1C(F)(F)F`, `COc1cccc(/C=N/NC(=O)c2ccccc2Nc2ccnc(C(F)(F)F)c2)c1O` is 160-fold lower in GI50: 58.4 µM for the first, 0.375 µM for the second.

Going from `O=C(O)CCCCC(CCSCc1ccccc1)SCc1ccccc1` (stereo not drawn) to `CCCCC/C(C=C(C#N)C#N)=C/c1ccccc1`, the GI50 falls from 72.2 µM to 5.09 µM (14-fold).

First: CC(C)CC(=O)[O-].CC(C)CC(=O)[O-].N.N.N.N.[Co+3].[O-][Cl+3]([O-])([O-])[O-]
Second: CCOc1cccc(/C=N/NC(=O)c2ccccc2Nc2ccnc(C(F)(F)F)c2)c1O
The GI50 of the first is higher: over 100 µM for the first, 0.35 µM for the second.

Going from `CN1CCN(Cc2ccc(NC(=O)c3cncc(C#Cc4cnc(N)c5ccc(C#N)cc45)c3)cc2C(F)(F)F)CC1` to `Cn1cc(-c2cnc3ccc(NC(=O)Nc4ccc(F)c(Br)c4)cc3n2)cn1`, the GI50 rises from 0.0438 µM to 1.84 µM (42-fold).

Compared with `O=C(Nc1ccc(N2CCNCC2)cc1)c1[nH]ncc1Nc1cc(Oc2ccccc2)ncn1`, `O=C(CN1CCOCC1)Nc1ccc(Cn2nnc3c2C(=O)c2nnn(Cc4ccc(NC(=O)CN5CCOCC5)cc4)c2C3=O)cc1` is 3.6-fold lower in GI50: 2.03 µM for the first, 0.56 µM for the second.

First: O=C1c2cccc(NCCN=Cc3cc(O)ccc3O)c2C(=O)c2c(NCCN=Cc3cc(O)ccc3O)cccc21
Second: COc1ccc2c(c1)c(-c1nc(-c3cn(C)c4ncccc34)cs1)cn2CCCN1CCCCC1
The GI50 of the first is 1.6-fold lower: 1.05 µM for the first, 1.63 µM for the second.

`Cc1cc(I)cc(CNCCCN2CCSCC2)c1O` and `Brc1ccc(CCNCCN2CCCCC2)cc1` are within 1.5-fold of each other in TGI: 36.4 µM for the first, 35.4 µM for the second.

First: CC(C)(C)c1ccc2c(c1)CNCCNCc1cc(C(C)(C)C)ccc1OCC1(CO2)COc2ccc(C(C)(C)C)cc2CNCCNCc2cc(C(C)(C)C)ccc2OC1
Second: COc1ccc(N2C(=O)C3c4[nH]c5ccc(OCc6ccccc6)cc5c4C4CCC(C(C)(C)C)CC4C3C2=O)cc1 (stereo not drawn)
The TGI of the first is lower: 3.23 µM for the first, over 100 µM for the second.

First: CC1=C(CCCNS(C)(=O)=O)C2=C(C)C3(CC3)[C@@](C)(O)C(=O)C2=C1
Second: CCCCN1C(=O)CC2[C@@H]3CCc4cc(OC(C)=O)ccc4C3CC[C@]2(C)C1=O (stereo partly drawn)
The TGI of the first is lower: 5.92 µM for the first, over 10 µM for the second.

`CSc1ccc(C2=NN(C(C)=O)C(c3cc(C)cs3)C2)cc1` (stereo not drawn) and `CC[C@]1(Cc2ccc(OC)c(OC)c2)CN(S(=O)(=O)c2ccc(C)cc2)C[C@@H]1OC(C)=O` cannot be ordered by TGI: over 100 µM for the first, over 100 µM for the second.

Compared with `CC1=C(O)C(=O)[C@@H]2O[C@@H]2C1=O`, `CCOC(=O)CCc1cc(=O)oc2cc(O)cc(O)c12` is higher in TGI: 78.1 µM for the first, over 100 µM for the second.

`COc1cc2c(cc1OC)C1=Cc3cc(OC)c(OC)cc3C(C)N1C=C2` (stereo not drawn) and `COc1ccc(/C(=C2\O[C@@H]([C@H]3COC(C)(C)O3)[C@H]3OC(C)(C)O[C@@H]23)c2cc(OC)c(OC)c(OC)c2)cc1O` cannot be ordered by TGI: over 100 µM for the first, over 100 µM for the second.

`S=C(N/N=C\C=N/NC(=S)N1CCCCC1)N1CCCCC1` and `c1ccc2c(c1)OC(N1CCCC1)c1cnc(N3CCCC3)nc1-2` (stereo not drawn) cannot be ordered by TGI: over 100 µM for the first, over 100 µM for the second.

`O=C1CCC[C@@H]2NC[C@@H](c3ccc4c(c3)OCO4)[C@H]12` and `CN1C(=O)N(c2ccccc2)C2(CCN(CC3COc4ccccc4O3)CC2)C1=O` (stereo not drawn) cannot be ordered by TGI: over 25 µM for the first, over 100 µM for the second.

First: NC(N)=NS(=O)(=O)c1ccc(NCc2c3ccccc3[n+]([O-])c3ccccc23)cc1
Second: O=C(NNC(=S)Nc1ccc(Cl)cc1)c1cc(-c2ccccc2)nc2ccccc12
The TGI of the first is higher: over 100 µM for the first, 19 µM for the second.

Going from `CC1OC(O[C@H]2C[C@@H](O)[C@]3(CO)[C@H]4[C@H](O)C[C@]5(C)[C@@H](C6=CC(=O)OC6)CC[C@]5(O)[C@@H]4CC[C@]3(O)C2)C(O)C(O)C1O` (stereo partly drawn) to `C=C(C)C12CC(COC(=O)c3ccccc3)C34OC5(OC1C3C1OC1(CO)C(O)C1(O)C(OC(=O)c3ccccc3)C(C)C(C(C)CCCCCCC5O)C14)O2` (stereo not drawn), the TGI rises from 49.1 µM to over 100 µM.

Compared with `Cc1ccc2c(c1)C(=O)/C(=C/c1ncc([N+](=O)[O-])n1C)O2`, `CC1(C)CC(/C=C2/OC(=O)c3ccccc32)=C(C#N)C(=O)O1` is higher in TGI: 46.2 µM for the first, over 100 µM for the second.

Compared with `Cc1nc2cccc([N+](=O)[O-])c2c(NCCCN(C)C)c1C`, `OCCCCCNc1c2ccccc2nc2ccccc12` is lower in TGI: over 58.6 µM for the first, 14.9 µM for the second.

Going from `O=C1c2c(c3c4ccccc4n(CCCCCCBr)c3c3[nH]c4ccccc4c23)C(=O)N1O` to `O=C(NCCOCCOCCNc1cccc2c1C(=O)N(C1CCCNC1=O)C2=O)c1cc2c(o1)C(=O)c1ccccc1C2=O` (stereo not drawn), the TGI falls from 12.5 µM to 3.5 µM (3.6-fold).

`O=C(c1ccco1)c1nc2ccc(C(F)(F)F)cc2[n+]([O-])c1C(F)(F)F` and `COc1cccc(/C=N/NC(=O)c2ccccc2Nc2ccnc(C(F)(F)F)c2)c1O` cannot be ordered by TGI: over 100 µM for the first, over 100 µM for the second.

Going from `O=C(O)CCCCC(CCSCc1ccccc1)SCc1ccccc1` (stereo not drawn) to `CN(C)CCC(=O)N1C/C(=C/c2ccccc2)C(=O)/C(=C\c2ccccc2)C1`, the TGI falls from over 100 µM to 5.75 µM.

First: COc1cc(O)c(/C=N/N=C(\N)NO)c(OC)c1
Second: COc1cc(OC)cc(-c2ccc(-c3ccc(C(=N)N)o3)o2)c1
The TGI of the first is higher: over 10 µM for the first, 9.57 µM for the second.

`CC(C)CC(=O)[O-].CC(C)CC(=O)[O-].N.N.N.N.[Co+3].[O-][Cl+3]([O-])([O-])[O-]` and `COC(=O)C[C@H]1CCC2(OCCO2)[C@]1(C)C(=O)OC` cannot be ordered by TGI: over 100 µM for the first, over 100 µM for the second.

Compared with `CN1CCN(Cc2ccc(NC(=O)c3cncc(C#Cc4cnc(N)c5ccc(C#N)cc45)c3)cc2C(F)(F)F)CC1`, `Cn1cc(-c2cnc3ccc(NC(=O)Nc4ccc(F)c(Br)c4)cc3n2)cn1` is 2.1-fold higher in TGI: 2.17 µM for the first, 4.46 µM for the second.

`COCOC1/C=C/CCCC#C[C@H](C)C(=O)CC1` (stereo partly drawn) and `CC(=O)OCC(C)C1=C(O)C(=O)C2(C)C/C=C(/C)CC/C=C(\C)CCC(O)C(C)CCC12` (stereo not drawn) are within 1.5-fold of each other in TGI: 28.1 µM for the first, 30.5 µM for the second.

`COc1ccc(C2CC(c3c(O)ccc4ccccc34)=NN2c2ccc([N+](=O)[O-])cc2[N+](=O)[O-])cc1OC` (stereo not drawn) and `CC1=C(C(=O)Nc2ccc3[nH]ncc3c2)C(c2ccc3ccccc3c2)CC(=O)N1` (stereo not drawn) cannot be ordered by TGI: over 100 µM for the first, over 25 µM for the second.

Compared with `CCCCCCCCCC[C@@H](O)[C@@H]1CC[C@H]([C@H]2CC[C@@H]([C@@H](O)CCCCCCCCCC[C@H]3CC(CC(C)=O)C(=O)O3)O2)O1` (stereo partly drawn), `CCCCCCCCCCCCCC(=O)OC1CC(=O)OC1CO` (stereo not drawn) is higher in TGI: 78.9 µM for the first, over 100 µM for the second.

`O=C1/C(=C/c2ccccc2)N=C(c2ccccc2)N1n1c(-c2ccccc2)nc2ccccc2c1=O` and `CCN(CC)c1c(C(=O)/C=C/c2ccccc2)c(-c2ccccc2)nn(C)c1=O` cannot be ordered by TGI: over 100 µM for the first, over 100 µM for the second.

Going from `Cc1c(F)c(N)c2c(=O)cc(-c3ccc(NC(=O)CN(C)C)c(F)c3)oc2c1F` to `COc1ccc2[nH]c3c(C)c4c(c(C)c3c2c1)CN(C)CC4`, the TGI falls from over 100 µM to 74.6 µM.

`CN(C(=O)C12C3C4C1C1C2C3C41C(=O)C(C)(C)C)C(C)(C)C` (stereo not drawn) and `Cc1ccc(S(=O)(=O)C(CC(=O)N2CCCC2)C(=O)c2ccccc2)cc1` (stereo not drawn) cannot be ordered by TGI: over 100 µM for the first, over 100 µM for the second.

First: CCCCC/C(C=C(C#N)C#N)=C/c1ccccc1
Second: N#C/C(=C/c1ccsc1)C(=O)c1ccccc1
The TGI of the first is lower: 21.4 µM for the first, over 100 µM for the second.

Going from `O=C(Nc1ccc(N2CCNCC2)cc1)c1[nH]ncc1Nc1cc(Oc2ccccc2)ncn1` to `CCOc1cccc(/C=N/NC(=O)c2ccccc2Nc2ccnc(C(F)(F)F)c2)c1O`, the TGI rises from 5.87 µM to over 100 µM.

Compared with `NC(=O)CNC(=O)C1CCCN1C(=O)C1CCCCNOC(=O)CC[C@@H](NC(=O)OCC2c3ccccc3-c3ccccc32)C(=O)NC(Cc2c[nH]c3ccccc23)C(=O)N1` (stereo partly drawn) (Fmoc-[dE][ξW][X31][ξP]G-NH2; ester 1-3), `O=C(CN1CCOCC1)Nc1ccc(Cn2nnc3c2C(=O)c2nnn(Cc4ccc(NC(=O)CN5CCOCC5)cc4)c2C3=O)cc1` is lower in TGI: over 100 µM for the first, 5.09 µM for the second.

`Cc1nc2c(nc1Cl)nc(Oc1ccc(Cl)cc1)c1ccccc12` and `COc1ccc(-n2c(=O)c3[nH]cnc3n(-c3ccc(OC)cc3)c2=S)cc1` cannot be ordered by TGI: over 100 µM for the first, over 100 µM for the second.

Compared with `O=C1NNC=Nc2ccc(cc2)S(=O)(=O)c2ccc(cc2)N=CNNC1=O`, `COc1ccc2c(c1)c(-c1nc(-c3cn(C)c4ncccc34)cs1)cn2CCCN1CCCCC1` is lower in TGI: over 100 µM for the first, 3 µM for the second.

Going from `NCC1CCN(c2nc3ccccc3c3c2CCCC3)CC1` to `OCc1ccc2[n+](c1)CCC1c3ccccc3NC21` (stereo not drawn), the TGI rises from 17.4 µM to over 300 µM.

`COCCOCOc1ccc(OCc2ccccc2)cc1` and `O=C(N/N=C/c1ccccc1O)c1cccc([N+](=O)[O-])c1` cannot be ordered by TGI: over 100 µM for the first, over 100 µM for the second.

`CC(C)Sc1nc(C#N)cc2c1CCCC2` and `OCCC1(O)CCC(O)CC1` (stereo not drawn) cannot be ordered by TGI: over 100 µM for the first, over 100 µM for the second.

In the case of `O=C1c2cccc(NCCN=Cc3cc(O)ccc3O)c2C(=O)c2c(NCCN=Cc3cc(O)ccc3O)cccc21`, the TGI is reported as 3.35 µM.

With `Nc1nc(=S)c2ncn(C3CC(O)C(CO)O3)c2[nH]1` (stereo not drawn) the TGI was 576 µM and 2380 µM.
